# Measurements as given in PubChem BioAssay (NCATS).
# “And” between values parts separate entries of the source, which are not always exact repeats. Identical values can stand only once. The inconclusive results got no clear call from the source; some entries with a clear call stand among them for comparison. For some of these results: Where the call is inconclusive, the potency comes from a doubtful curve fit. The source made the active and inactive calls. Calls come from the whole dose curve; as a rule, active = well fitted curve in the direction sought with a large enough effect; inconclusive = small, poorly fitted or top-dose-only effect, or another doubt; inactive = no such curve, though single readings can be large; an effect the other way counts as inactive or inconclusive.
# Columns and labels:
# [1] = system: Zika virus NS2B-NS3 protease; test: Primary screen GU AMC qHTS for Zika virus inhibitors (AID 1347154); conditions: Zika NS2B-NS3 unlinked protease, AMC fluorogenic substrate; series mostly up to 54.1 µM; note: nearly all actives have a fitted effect of over 70% in size; note: potency is the fitted concentration of half-maximal effect
# How it was run: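 Unlinked Zika NS2B hydrophilic domain–NS3 protease complex at 25 nM in 10 mM Tris-HCl pH 8.0, 0.01% Tween 20, with an AMC peptide substrate. Fluorescence change (340/450 nm) over 15 min at room temperature, normalized to controls, fitted to 4-parameter Hill.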
# [2] = system: Zika virus NS2B-NS3 protease (unlinked complex); test: Confirmatory screen GU AMC qHTS for Zika virus inhibitors (AID 1347153); conditions: Recombinant NS2B-NS3 protease, AMC substrate fluorescence; series mostly up to 57.1 µM; note: nearly all actives have a fitted effect of over 70% in size;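 for potency: enzyme at 25 nM with substrate at 10 µM below its Km of 18.3 µM; potency is the fitted concentration of half-maximal effect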
# How it was run: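 Fluorescence change (ex 340/em 450 nm) over 15 min, ~20% substrate conversion, normalized to no-inhibitor and no-enzyme controls, then Hill-fitted. Unlinked protease at 25 nM; AMC peptide 10 µM.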
# [3] = Confirmatory screen NINDS Rhodamine qHTS for Zika virus inhibitors (AID 1347161); conditions: purified enzyme assay, Rhodamine110 substrate fluorescence, 15 min; series mostly up to 114 µM;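 note: purified Zika NS2B-NS3 protease with linked NS2B cofactor domain and Rhodamine110 peptide substrate; nearly all actives have a fitted effect of over 60% in size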
# How it was run: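 Rhodamine110-peptide cleavage (1.5 µM substrate) by 25 nM linked NS2B-NS3 enzyme at pH 8.0 (Tris, Tween 20), after 15 min RT preincubation with compounds; 15-min fluorescence change normalized to controls and Hill-fitted.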
# [4] = system: Zika virus NS2B-NS3 protease (linked construct); test: Primary screen NINDS Rhodamine qHTS for Zika virus inhibitors (AID 1347160); conditions: purified NS2B-NS3 protease, Rhodamine110 substrate fluorescence; series mostly up to 57.1 µM; note: nearly all actives have a fitted effect of over 55% in size; note: potency is the fitted concentration of half-maximal effect
# How it was run: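 Kinetic fluorescence (Ex 480 nm, Em 540 nm) over 15 min with 1.5 microM Rhodamine110 peptide and 25 nM linked protease.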
# [5] = system: Zika virus NS2B-NS3 protease (linked); test: 384 well plate NINDS AMC confirmatory qHTS for Zika virus inhibitors (AID 1347163); conditions: Recombinant NS2B-NS3 protease, Ac-VKTGKR-AMC fluorescence; series mostly up to 1 mM; note: nearly all actives have a fitted effect of over 50% in size; note: potency is the fitted concentration of half-maximal effect
# How it was run: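 Linked protease 5/30/60 nM final; cpds up to 1 mM final, ~15 min preinc. Substrate Ac-VKTGKR-AMC 30 microM final. RT, dark, 25 min; FI ex 355/em 460; normalized to no-enzyme/no-inhibitor ctrls.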
# [6] = ZIKV-mCherry secondary qHTS for Zika virus inhibitors (AID 1347158); conditions: Vero cells, ZIKV-mCherry infection imaging, 48-72 h; series mostly up to 49.2 µM; note: potency is the fitted concentration of half-maximal effect
# How it was run: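 After overnight seeding at 37 °C, Vero cells receive compound and then ZIKV-mCherry (MOI 1). Following 48-72 h infection, cells are fixed, counterstained with Hoechst, and imaged; percent infected cells is derived from an mCherry intensity cut-off of 450 RFU.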
# [7] = system: Zika virus NS2B-NS3 protease (linked construct); test: 384 well plate NINDS Rhodamine confirmatory qHTS for Zika virus inhibitors (AID 1347164); conditions: rhodamine-110 peptide substrate fluorescence; series mostly up to 100 µM;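 note: fluorescence from protease cleavage of Ac-LKRR-rhodamine 110 substrate; potency is the fitted concentration of half-maximal effect; nearly all actives have a fitted effect of over 65% in size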
# How it was run: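 Enzyme (final 5/30/60 nM) + cpd (DMSO), ~15 min; add Ac-LKRR-Rd 10 microM final; 25 min RT, dark; FI ex 485/em 538; normalized to no-enzyme, no-inhibitor ctrls; aprotinin intraplate ctrl.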
# [8] = HepG2 cells viability qHTS for Zika virus inhibitors (AID 1347168); conditions: Zika counter-screen; note: potency is the fitted concentration of half-maximal effect
# How it was run: (§1)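 Cells seeded at 2.5 x 10^5 cells/mL in DMEM with 4% FBS and attached overnight at 37 degrees C, then exposed to compound for 24 to 48 hours. Viability read as ATP content by CellTiter Glo luminescence.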
# [9] = Vero cells viability qHTS for Zika virus inhibitors (AID 1347167); conditions: cytotoxicity counter-screen (Zika); series mostly up to 91.6 µM; note: potency is the fitted concentration of half-maximal effect
# How it was run: as §1
# [10] = system: Zika virus NS2B-NS3 protease (unlinked complex); test: Primary screen GU Rhodamine qHTS for Zika virus inhibitors: Unlinked NS2B-NS3 protease assay (AID 1347159); conditions: Recombinant ZIKV NS2B-NS3 protease, Rhodamine110 substrate fluorescence; series mostly up to 107 µM; note: nearly all actives have a fitted effect of over 60% in size; note: potency is the fitted concentration of half-maximal effect
# How it was run: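 A qHTS format was used, with compound concentrations ranging up to 114 microM. Each compound was preincubated with 25 nM NS2B-NS3 protease, and the substrate was then added at 1.5 microM. Curves were fitted with a 4-parameter Hill model.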
# Tags give direction and shape of the fitted curve.
smiles,measurement,setting,value
CC(C)(C)NCC(O)c1cc(Cl)c(N)c(C(F)(F)F)c1 (configuration not stated),Potency,[1],inactive
C[C@]12CC[C@H]3[C@@H](CCC4=CC(=O)CC[C@@]43C)[C@H]1CC[C@H]2OC(=O)CCC1CCCC1,Potency,[1],"inconclusive: 0.192 µM [inhibitor, full curve, poor fit]"
Cc1ccc(-c2nc3ccc(C)cn3c2CC(=O)N(C)C)cc1,Potency,[2],"inconclusive: 24.1 µM [inhibitor, partial curve]"
same,Potency,[3],inactive
O=C(O)C(=O)c1cn(Cc2ccccc2)c2ccc(-c3ccc(OC(F)(F)F)cc3)cc12,Potency,[2],"active: 9.61 µM and inconclusive: 7.84 µM [inhibitor, full curve]"
same,Potency,[4],active: 2.51 µM
same,Potency,[5],"inconclusive: 3.55 µM [inhibitor, full curve, poor fit]"
c1ccc2c(c1)Sc1ccccc1N2CC1CN2CCC1CC2 (configuration not stated),Potency,[1],inactive
COc1cccc2c1[C@]13CCN(CC4CC4)[C@H](C2)[C@]1(OC)CCC(=O)C3,Potency,[1],inactive
CCN(CC)C(=O)[C@@H]1C=C2c3cccc4[nH]cc(c34)C[C@H]2N(C)C1,Potency,[1],active: 35.5 µM
CCCCCCCCCC(CC)c1ccc(S(=O)(=O)O)cc1 (configuration not stated),Potency,[1],active: 11.7 µM
Oc1ccc([C@H]2CNCc3c2ccc(O)c3O)cc1O,Potency,[2],inactive
same,Potency,[3],inactive
C[C@]12CC[C@@H]3c4ccc(OC(=O)N(CCCl)CCCl)cc4CC[C@H]3[C@@H]1CC[C@@H]2O,Potency,[2],"inconclusive: 21.5 µM [inhibitor, partial curve, poor fit]"
same,Potency,[1],active: 15.8 µM
same,Potency,[6],"inconclusive: 25.1 µM [inhibitor, partial curve]"
same,Potency,[5],"inconclusive: 35.5 µM [inhibitor, full curve, poor fit]"
same,Potency,[7],active: 39.8 µM
Oc1ccc(Cl)cc1Cc1ccccc1,Potency,[1],"inconclusive: 5.62 µM [inhibitor, full curve, poor fit]"
CCCN(CCC)c1c([N+](=O)[O-])cc(S(N)(=O)=O)cc1[N+](=O)[O-],Potency,[1],"inconclusive: 39.8 µM [inhibitor, partial curve, poor fit]"
CC(=O)N(C)c1cccc(-c2ccnc3c(C(=O)c4cccs4)cnn23)c1,Potency,[2],"inconclusive: 27.1 µM [inhibitor, single point]"
CC1=C(O)C(=O)C=C2C1=CC=C1[C@@]2(C)CC[C@@]2(C)[C@@H]3C[C@](C)(C(=O)O)CC[C@]3(C)CC[C@]12C,Potency,[2],"inconclusive: 24.1 µM [inhibitor, partial curve] and inconclusive: 21.5 µM [inhibitor, partial curve]"
same,Potency,[1],"inconclusive: 15.2 µM [inhibitor, partial curve] and inconclusive: 37.7 µM [inhibitor, single point]"
same,Potency,[6],"inconclusive: 0.891 µM [inhibitor, full curve]"
same,Potency,[5],"inconclusive: 44.7 µM [inhibitor, partial curve]"
same,Potency,[7],active: 28.2 µM
same,Potency,[8],active: 18.5 µM and active: 7.37 µM
O=S(=O)(c1ccc(Cl)cc1)c1ccc(Cl)cc1,Potency,[1],"inconclusive: 37.3 µM [inhibitor, full curve, poor fit]"
C=CC[C@]1(O)CC[C@H]2[C@@H]3CCC4=CC(=O)CCC4=C3C=C[C@@]21C,Potency,[1],"inconclusive: 16.1 µM [inhibitor, full curve, poor fit]"
O=C1OC(c2ccc(O)c(S(=O)(=O)O)c2)(c2ccc(O)c(S(=O)(=O)O)c2)c2c(Br)c(Br)c(Br)c(Br)c21,Potency,[5],active: 112 µM
O=C(Nc1ccc(Br)cc1)c1cc(Br)cc(Br)c1O,Potency,[5],inactive
same,Potency,[9],active: 23.4 µM
CC1CCCC(=O)CCC/C=C/c2cc(O)cc(O)c2C(=O)O1 (configuration not stated),Potency,[10],"inconclusive: 50.1 µM [inhibitor, partial curve, poor fit]"
N#Cc1ccccc1-c1cc(-c2ccccn2)cn(-c2ccccc2)c1=O,Potency,[10],"inconclusive: 79.4 µM [inhibitor, partial curve, poor fit]"
C=C(C)[C@@]12O[C@@H]1[C@@]1(C)C(=CC2=O)CC[C@@H](OC(C)=O)[C@@H]1C,Potency,[10],"inconclusive: 44.7 µM [inhibitor, partial curve, poor fit]"
same,Potency,[4],"inconclusive: 35.5 µM [inhibitor, single point]"
CC1=CC2/C=C(\C)CCC(O)C(O)C(O)CC(=O)C23C(=O)NC(CC(C)C)C3C1C (configuration not stated),Potency,[4],inactive
Cc1sc2c(c1C)C(c1ccc(Cl)cc1)=NC(CC(=O)Nc1ccc(O)cc1)c1nnc(C)n1-2 (configuration not stated),Potency,[10],"inconclusive: 79.4 µM [inhibitor, partial curve, poor fit]"
C[C@H](CCC(=O)O)C[C@H](C)C[C@H](C)C(=O)/C=C(\O)[C@H](C)C[C@H](C)C/C=C/[C@@H](C)[C@@H](O)[C@@H](C)[C@@H](O)C[C@@H]1CC[C@@](C)([C@H]2CC[C@@](C)([C@@H](C)O)O2)O1,Potency,[10],"inconclusive: 8.91 µM [inhibitor, partial curve]"
CN=C(NS(=O)(=O)c1ccc(Cl)cc1)N1C[C@H](c2ccccc2)C(c2ccc(Cl)cc2)=N1,Potency,[10],inactive
same,Potency,[4],inactive
COC1CC(O[C@H]2CC[C@]3(C)C4CC[C@]5(C)[C@@H](C6=CC(=O)OC6)[C@@H](OC(C)=O)C[C@]5(O)C4CC[C@@H]3C2)OC(C)C1O[C@@H]1O[C@H](CO)[C@@H](O)[C@H](O)[C@H]1O (some centres not stated),Potency,[10],"inconclusive: 14.1 µM [inhibitor, partial curve]"
CCC(C)/C=C(C)/C=C/C1=CC2=C(Cl)C(=O)C(C)(OC(C)=O)C(=O)C2=CO1 (configuration not stated),Potency,[10],"inconclusive: 4.47 µM [inhibitor, full curve, poor fit]"
same,Potency,[4],"inconclusive: 10 µM [inhibitor, partial curve]"
CCN1CCN(C(=O)Cc2ccc(Nc3ncc(F)c(Nc4ccc(C(=O)Nc5ccccc5Cl)cc4)n3)cc2)CC1,Potency,[10],"inconclusive: 39.8 µM [inhibitor, partial curve, poor fit]"
C=C1C2(C)CC3C(C)(O)C4=CC(=O)OC(C)(C)C4=CCC3(C)C13C(=O)OC(C)C3(O)C2=O (configuration not stated),Potency,[10],inactive
C[C@@H]1[C@H](O)[C@@H](C)/C=C/C=C/CC/C=C/C=C/C=C/C=C/[C@H](O[C@H]2O[C@@H](C)[C@H](O)[C@@H](N)[C@H]2O)C[C@@H]2O[C@](O)(C[C@@H](O)[C@H](O)CC[C@@H](O)C[C@@H](O)C[C@@H](O)CC(=O)O[C@H]1C)C[C@H](O)[C@H]2C(=O)O,Potency,[4],"inconclusive: 11.2 µM [inhibitor, single point]"
O=C(O)CNC(=O)c1c(O)c2ccccc2n(Cc2ccccc2)c1=O,Potency,[4],active: 11.2 µM
CC(=O)OCC1=C(C(=O)O)N2C(=O)[C@@H](N)[C@H]2SC1,Potency,[4],"inconclusive: 20 µM [inhibitor, partial curve]"
COC(=O)C12C(=O)C(C)(O)C(=O)C1(C)C(C)=CC1C3(C=O)CCC(OC(C)=O)C(C)(C)C3CCC12C (configuration not stated),Potency,[10],"inconclusive: 8.91 µM [inhibitor, full curve, poor fit]"
same,Potency,[4],"inconclusive: 11.2 µM [inhibitor, single point]"
CC(C)[C@H]1OC(=O)[C@H](Cc2ccccc2)N(C)C(=O)[C@@H](C(C)C)OC(=O)[C@H](Cc2ccccc2)N(C)C(=O)[C@@H](C(C)C)OC(=O)[C@H](Cc2ccccc2)N(C)C1=O,Potency,[10],"inconclusive: 6.31 µM [inhibitor, full curve]"
CC(=O)C1CCC2C3CCC4C[C@@H](O)CCC4(C)C3CCC12C (some centres not stated),Potency,[4],"inconclusive: 39.8 µM [inhibitor, single point]"
CC1CCCC(O)CCC/C=C/c2cc(O)cc(O)c2C(=O)O1 (configuration not stated),Potency,[10],"inconclusive: 10 µM [inhibitor, full curve]"
C=C1C(=O)O[C@@H]2[C@H]3C(=C)[C@@H](O)C[C@H]3C(=C)C[C@@H](O)[C@@H]12,Potency,[10],"inconclusive: 11.2 µM [inhibitor, full curve]"
same,Potency,[4],"inconclusive: 20 µM [inhibitor, partial curve]"
C=CC(C)(C)C12C=C(O)C(=O)N3/C(=C\c4cnc[nH]4)C(=O)NC31N(OC)c1ccccc12 (configuration not stated),Potency,[10],"inconclusive: 14.1 µM [inhibitor, full curve]"
CCNC(=O)C[C@@H]1N=C(c2ccc(Cl)cc2)c2cc(OC)ccc2-n2c(C)nnc21,Potency,[4],"inconclusive: 39.8 µM [inhibitor, single point]"
O=C(OC[C@H]1O[C@@H](Oc2ccc(O)cc2CO)[C@H](O)[C@@H](O)[C@@H]1O)c1ccccc1,Potency,[10],"inconclusive: 35.5 µM [inhibitor, partial curve]"
same,Potency,[4],"inconclusive: 11.2 µM [inhibitor, single point]"
COCC(C(=O)OC1CC2CCC(C1)N2C)c1ccccc1 (configuration not stated),Potency,[4],inactive
C[C@H]1CCC[C@H](O)CCC/C=C/c2cc(O)cc(O)c2C(=O)O1,Potency,[10],"inconclusive: 89.1 µM [inhibitor, single point]"
O=C1CN=C(c2ccccc2Cl)c2cc(Br)ccc2N1,Potency,[10],"inconclusive: 39.8 µM [inhibitor, partial curve, poor fit]"
C=C1[C@@]23C(=O)O[C@H](C)[C@]24O[C@@]2(C(=C)[C@]5(C=CC(=O)OC5(C)C)CC[C@]32C)[C@H](O)[C@@]1(C)OC4=O,Potency,[10],"inconclusive: 15.8 µM [inhibitor, partial curve]"
same,Potency,[4],"inconclusive: 3.55 µM [inhibitor, full curve, poor fit]"
OC(CNc1ccccc1)Cn1c2ccc(Br)cc2c2cc(Br)ccc21 (configuration not stated),Potency,[4],"inconclusive: 39.8 µM [inhibitor, single point]"
CN1C(=O)C(Cc2ccc3ccccc3c2)N=C(c2ccc(O)cc2)c2cc(Cl)ccc21 (configuration not stated),Potency,[4],"inconclusive: 39.8 µM [inhibitor, single point]"
